# The whole screen tested about 310,000 compounds, of which about 14,000 (4.5%) showed an effect of 50% or more. Effects have a minus sign here. The list shows a part of the results.
# Molecular target: human ether-à-go-go-related gene (hERG) potassium channel (human, UniProt Q12809)
# Assay: primary screen, population patch clamp on CHO cells stably expressing hERG
# 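Further: peak tail current of the secondary pulse compared with the same well before compound.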
# human ether-à-go-go-related gene (hERG) potassium channel, sequence (Q12809 whole entry, looked up): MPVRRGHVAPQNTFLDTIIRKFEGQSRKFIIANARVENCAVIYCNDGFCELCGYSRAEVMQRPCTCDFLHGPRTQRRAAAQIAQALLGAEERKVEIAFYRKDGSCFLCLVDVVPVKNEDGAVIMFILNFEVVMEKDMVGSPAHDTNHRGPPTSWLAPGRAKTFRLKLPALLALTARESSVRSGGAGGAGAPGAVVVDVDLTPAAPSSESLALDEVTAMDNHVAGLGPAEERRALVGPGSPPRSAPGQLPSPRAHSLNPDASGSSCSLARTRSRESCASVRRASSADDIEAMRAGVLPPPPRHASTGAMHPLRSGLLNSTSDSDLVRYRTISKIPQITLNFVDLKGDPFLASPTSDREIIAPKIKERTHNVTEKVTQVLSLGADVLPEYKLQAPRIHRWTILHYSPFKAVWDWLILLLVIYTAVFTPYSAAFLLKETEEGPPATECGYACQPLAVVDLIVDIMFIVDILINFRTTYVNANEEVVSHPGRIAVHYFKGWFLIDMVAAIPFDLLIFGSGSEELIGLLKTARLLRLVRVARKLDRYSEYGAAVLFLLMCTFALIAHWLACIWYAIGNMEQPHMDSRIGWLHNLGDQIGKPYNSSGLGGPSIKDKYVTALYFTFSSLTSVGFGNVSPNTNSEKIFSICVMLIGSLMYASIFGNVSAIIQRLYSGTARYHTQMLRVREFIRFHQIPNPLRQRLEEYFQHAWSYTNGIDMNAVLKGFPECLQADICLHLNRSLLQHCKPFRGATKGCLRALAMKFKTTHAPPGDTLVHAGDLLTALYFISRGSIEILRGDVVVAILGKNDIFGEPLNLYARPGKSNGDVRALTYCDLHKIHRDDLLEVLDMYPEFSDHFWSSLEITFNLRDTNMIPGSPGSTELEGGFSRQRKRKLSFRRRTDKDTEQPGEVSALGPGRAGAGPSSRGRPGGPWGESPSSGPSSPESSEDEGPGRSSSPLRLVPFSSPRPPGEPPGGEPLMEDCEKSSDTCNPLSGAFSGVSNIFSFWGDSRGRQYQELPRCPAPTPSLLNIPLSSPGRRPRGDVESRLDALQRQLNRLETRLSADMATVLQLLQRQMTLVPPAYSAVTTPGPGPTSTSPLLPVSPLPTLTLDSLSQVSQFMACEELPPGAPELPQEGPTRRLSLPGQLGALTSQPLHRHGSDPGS
row,Compound,"hERG current change (%, negative = inhibition) at 10uM"
1,CCOC(=O)CC[NH3+].[Cl-],9.06%
2,O=C(O)CC/C(=N/Nc1ccc([N+](=O)[O-])cc1)C(=O)O,20.4%
3,COc1ccc(NC(=O)COC(=O)Cn2cnc3ccccc3c2=O)cc1OC,2.68%
4,COc1cc(C(C)=O)ccc1OCc1cc(C(=O)N2CCSCC2)no1,13.1%
5,c1cnc(Nc2nc(-c3ccc4ccccc4c3)cs2)nc1,15.5%
6,O=C(c1c(F)cccc1F)N1CCCC(c2nc(-c3ccc(F)cc3)no2)C1 (stereo not shown),-6.69%
7,CC1CN(CC(O)COC2CCC(C(C)(C)C)CC2)CC(C)O1.Cl (stereo not shown),5.86%
8,CC(=O)Nc1ccc(SCC(=O)Nc2oc(C)c3c(C)n[nH]c(=O)c23)cc1,8.72%
9,CCN(CC(=O)Nc1ccccc1OC)C(=O)CCc1ccccc1,-7.86%
10,O=C(NCc1ccccc1)c1cncc(Br)c1,-6.81%
11,COc1ccc(/C=C2/SC(=O)NC2=O)cc1,11.1%
12,COc1cc([N+](=O)[O-])cc2cc(C(=O)N3CCN=C3c3ccccc3)c(=O)oc12,-0.402%
13,COC(=O)/C=c1\[nH]c2nnc(C)n2c1=O,5.25%
14,Cc1cccc(NC(=S)NNC(=O)c2ccc(Br)o2)c1,19.3%
15,CC(C)(C)SCCNC(=O)CN1C(=O)c2cccc3cccc1c23,15.8%
16,Cc1nonc1OCCNCc1c(C(=O)N(C)C)nc2ccc(Cl)cn12,6.49%
17,Cc1ccc(NC(=S)N2CCSC2c2cccs2)cc1 (stereo not shown),10.2%
18,Cc1cccc(C)c1NC(=O)/C(=C/c1ccco1)c1ccccc1,-8.26%
19,Cc1cccc2cc(CN(Cc3ccc(F)cc3)Cc3nnnn3C3CCCC3)c(=O)[nH]c12,-3.2%
20,CN1CCN(C(=O)CSc2nnc(COc3ccc(Cl)cc3)o2)CC1,-8.74%
21,CCc1cc2c(=O)c(-c3cscn3)coc2c(CN(C)C)c1O,8.84%
22,O=C(CSc1nccn1Cc1ccco1)Nc1ccccc1C(F)(F)F,2.5%
23,COc1ccc(/C=C2\CCC(C3CCCC3)C2=O)cc1 (stereo not shown),14.9%

row,Compound,"hERG current change (%, negative = inhibition) at 10uM"
1,CCC(=O)c1ccc(OC(=O)N2CCOCC2)cc1,3.44%
2,COc1cc2c(cc1OC)/C(=C/c1ccc(Cl)cc1)C(=O)OC2,-36.4%
3,COc1cc(C(=O)Nc2ccc(C(N)=O)cc2)c([N+](=O)[O-])cc1OC,24.2%
4,O=C(CC(NC(=O)c1ccccc1Cl)c1ccccc1)NC1=NCCS1 (stereo not shown),3.69%
5,CNc1n[nH]c(=S)s1,7.02%
6,CN1CCN(c2ccc(C(=O)c3ccccc3)cc2[N+](=O)[O-])CC1,-53.1%
7,Cn1c(=O)c(=O)n(C)c2cc(S(=O)(=O)N3CCCC3C(=O)Nc3ccccc3F)ccc21 (stereo not shown),-34.1%
8,Cc1ccc(S(=O)(=O)NC(C)C(c2cccs2)N2CCN(C)CC2)cc1 (stereo not shown),-18%
9,O=C(CCc1ccccc1)NNC(=O)c1ccc(Cl)cc1,11.9%
10,O=C(N/N=C\c1ccc(-c2ccccc2[N+](=O)[O-])o1)C1COc2ccccc2O1 (stereo not shown),-11.6%
11,O=C(CNC(=O)c1ccco1)OCC(=O)c1ccc(Br)cc1,-1.87%
12,Br.CCc1nnc2n1N=C(c1cccc([N+](=O)[O-])c1)CS2,-32.1%
13,CC(=O)N1c2c(cc(Br)cc2S(=O)(=O)NCc2cccnc2)CC1C (stereo not shown),5.7%
14,Cc1ccc(-c2cc(-c3ccc(C)o3)nc(N)c2C#N)cc1,-0.412%
15,Cc1ccc2c(c1)nnn2C1CCN(CC(=O)Nc2ccc3c(c2)OCCO3)CC1,-55.5%
16,Cc1c(O)cc2n(c1=O)-c1ccccc1C2(C)C,11.5%
17,Cn1nnnc1SCC(=O)c1ccc(Br)s1,3.42%
18,Cc1ccccc1CNc1ncnc2cc(Cl)ccc12,16.4%
19,CC(=O)c1cccc(NS(=O)(=O)c2csc(C(N)=O)c2)c1,22.4%
20,CC(NC(=O)c1ccccc1SCC(=O)N1CCCC1)c1ccccc1 (stereo not shown),-26.1%
21,COc1ccc(NC(=O)CS(=O)(=O)c2ccc(F)cc2)cc1,15.9%
22,CCc1ccc(NC(=O)CS(=O)CC(=O)Nc2ccc(F)cc2F)cc1 (stereo not shown),-0.916%
23,CCOC(=O)N1CCN(S(=O)(=O)c2ccc(C(=O)NNc3nc4ccc(Cl)cc4s3)cc2)CC1,2.66%

row,Compound,"hERG current change (%, negative = inhibition) at 10uM"
1,CCN(CC)S(=O)(=O)c1cccc(C(=O)N[C@H](C(=O)Nc2nc3ccc(F)cc3s2)C(C)C)c1,-13.9%
2,CC(Cc1ccccc1)C(=O)NCc1nc2ccccc2s1 (stereo not shown),-6.61%
3,Cc1ccc(NC(=O)c2cc([N+](=O)[O-])ccc2NCc2cccnc2)cc1Cl,-41.7%
4,COC(=O)Cc1ccc(NC(=S)NCc2ccccc2Cl)cc1,-6.56%
5,CC(C(=O)c1ccc2ccccc2c1)N1CCCCC1 (stereo not shown),-21.4%
6,CCCOc1ccccc1C(=O)NCCCC(=O)O,12.2%
7,Cc1cc(Cl)ccc1NC(=S)N1CCN(C(=O)c2ccco2)CC1,-8.95%
8,CCOC(=O)c1c(NC(C)=O)sc2c1CCC(C=NCCCN(CC)CC)=C2Sc1ccccc1,5.55%
9,O=C(CN1CCC(C(O)(c2ccccc2)c2ccccc2)CC1)Nc1cc(Cl)ccc1Cl,0.176%
10,NC(=O)Cc1nc(-c2ccc(F)cc2)cs1,0.939%
11,COC(=O)c1cc(S(=O)(=O)N2CCC(c3cc(OC)ccc3OC)C2)c[nH]1 (stereo not shown),-6.4%
12,COc1ccc(CCNC(=O)c2ccc(-c3ccc([N+](=O)[O-])cc3Cl)o2)cc1,4.64%
13,COC(=O)C1CCN(C(=O)c2cc(=O)[nH]c3ccccc23)CC1,2.15%
14,Cc1ccc(C(=O)N2CCCC2)cc1S(=O)(=O)N1CCCCC1,8.68%
15,CC1CCN(C(=O)COC(=O)C2CCN(S(=O)(=O)c3ccc4c(c3)OCCO4)CC2)CC1,-17.5%
16,S=C(Nc1cccnc1)NC1CCCC1,9.3%
17,O=[N+]([O-])c1cc(C(F)(F)F)ccc1NCCCCNS(=O)(=O)c1ccc(Cl)cc1,7.38%
18,O=C(Cn1cncn1)N/N=C/c1ccncc1,9.23%
19,C=CCNc1nc(-c2ccccc2)nc(-n2ccnc2)n1,-9.66%
20,Cc1ccc(O)c(Cn2nnc3ccccc32)c1,10.6%
21,COC(=O)c1ccc(COc2ncnc3sccc23)cc1,16.8%
22,Cc1ccc(-c2cc(C(=O)O)c3ccccc3n2)s1,17.3%
23,C[C@H](NC(=O)c1nc[nH]c1C(=O)N(C)Cc1ccccc1)c1ccccc1,3.98%

row,Compound,"hERG current change (%, negative = inhibition) at 10uM"
1,Cc1nn2c(=O)nc3sc4c(c3c2[nH]c1=O)CCCC4,11.9%
2,Cc1ccc(NC(=O)COC(=O)/C=C/c2ccco2)cc1S(=O)(=O)N(C)C,-21%
3,O=C(c1cccc(S(=O)(=O)N2CCCCC2)c1)N1CCCCC1,5.7%
4,COCCNc1cnn(-c2ccccc2)c(=O)c1Cl,19.5%
5,CC1CCCC(C)N1C(=O)COC(=O)COc1ccccc1C#N (stereo not shown),3.61%
6,COc1ccc(C2=Nn3c(nnc3-c3ccco3)SC2)cc1,-63.6%
7,O=C(NCCc1ccccc1)c1cc(-c2ccco2)on1,11.8%
8,O=C(NCc1cccnc1)c1cc(-c2ccccc2)on1,-16.4%
9,Cc1ccc(CN(C)C(=O)c2cc(COc3cccc(C(F)(F)F)c3)on2)o1,-17.8%
10,CC(C)OC(=O)CSc1nnc(Cc2ccccc2)n1CC1CCCO1 (stereo not shown),4.89%
11,CC(C)(CO)NS(=O)(=O)c1ccc2c(c1)C(=NO)c1cc(S(=O)(=O)NC(C)(C)CO)ccc1-2,13.4%
12,O=C(O)c1ccc(Cl)c(S(=O)(=O)N(Cc2ccccc2)c2ccc(Cl)cc2)c1,23.2%
13,O=C(Nc1ccc(Cl)c(Cl)c1)Nc1cc(C(=O)N2CCOCC2)ccc1N1CCCCC1,-23.3%
14,COc1cccc(CNC(=O)COC(=O)c2nc(Cl)c(Cl)c(Cl)c2Cl)c1,12.4%
15,O=[N+]([O-])c1nn(-c2ccc(Cl)cc2)n(O)c1=NCc1ccccc1,-10.1%
16,O=C(/C=C/Sc1ccccc1)c1ccc(Cl)cc1,12%
17,CCOC(=O)CSc1nc2sc3c(c2c(=O)[nH]1)CCCC3,19.6%
18,CCCS(=O)(=O)Nc1c(OC)ccc2c1c(C(=O)OCC)c(C)n2C,-4.56%
19,COc1cc(/C=N/NC(=O)C(N)=O)ccc1OC(=O)c1cccs1,17.1%
20,CCOC(=O)C1(CC2CC2)CCN(Cc2cn[nH]c2-c2cccc(F)c2)CC1,-91.6%
21,CC(C)NCC(O)COc1cccc2[nH]ccc12 (stereo not shown),13.3%
22,O=C(COc1ccc(Cl)cc1Br)NCC(c1ccco1)N1CCCC1 (stereo not shown),-39.5%
